Measurements reported in PubChem BioAssay AID1508642 (National Center for Advancing Translational Sciences (NCATS), 2021).
Among all 43,000 compounds or so, about 200 (0.47%) were called active. Inconclusive results, whose numbers are uncertain, are shown with a selection of clear calls. Calls follow the shape of the dose curve; as a rule, active = well fitted cell-killing curve with a large enough effect; inconclusive = small, poorly fitted or top-dose-only effect, or effect the other way; inactive = flat fitted curve, though single readings scatter. Potencies beside an inconclusive call are fits to weak or partial responses and may not hold up.

experiment: Cell viability qHTS assay in S16 Pmp22-F2sN cells; conditions: S16 Pmp22-F2sN Schwann cells viability, CellTiter-Glo, 24 h; series mostly up to 57.5 µM; also: nearly all actives have a fitted effect of over 65% in size
How it was run: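 Used to flag compounds lowering reporter output through toxicity, this quantitative HTS measures ATP-based CellTiter-Glo luminescence in S16 Pmp22-F2sN Schwann cells after 24 h compound exposure at 37C.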
Potency is read from the fitted curve at half-maximal effect; tags tell the direction and shape of the fitted curve.

Question: For O=C(NCc1ccccc1Cl)C1CCCN(C(=O)c2cnn(-c3ccccc3)c2-n2cccc2)C1 (stereo not given), which Potency is on record?
Answer: inconclusive: 39.8 µM [cytotoxic, single point]

Question: Which Potency does the source give for CCCCOc1ccc(CN2C(=O)C(=O)c3cc(Br)cc(C)c32)cc1OC here?
Answer: inconclusive: 28.2 µM [cytotoxic, single point]

Question: With Cc1cccc(C)c1-n1ncc(C(=O)Nc2ccc3c(c2)OCO3)c1C1CCN(C(=O)OC(C)(C)C)CC1 as the compound, how does the Potency read?
Answer: inconclusive: 22.4 µM [cytotoxic, partial curve, poor fit]

Question: Which Potency does the source give for COc1ccccc1C(=O)Nc1c(C(=O)N(C)Cc2ccccc2)sc2nc(C)c(Cl)c(C)c12 here?
Answer: inconclusive: 39.8 µM [cytotoxic, single point]

Question: For COc1cccc(CNC(=O)CN(C)S(=O)(=O)c2ccc3[nH]c4c(c3c2)CCCC4)c1, which Potency is on record?
Answer: inactive

Question: With COc1ccc(-n2c(=O)c3c4c(sc3n(Cc3ccccc3Cl)c2=O)CCC4)c(OC)c1 as the compound, how does the Potency read?
Answer: inconclusive: 39.8 µM [cytotoxic, single point]

Question: With Cc1ccc(C2=CC(c3ccccc3F)n3c(nc4ccccc43)N2)cc1C (stereo not given) as the compound, how does the Potency read?
Answer: inconclusive: 17.8 µM [cytotoxic, partial curve, poor fit]

Question: Which Potency does the source give for COc1ccccc1N1CCN(C(CNC(=O)C(=O)NCc2ccc(C)cc2)c2cccnc2)CC1 (stereo not given) here?
Answer: inconclusive: 12.6 µM [cytotoxic, partial curve]

Question: With CC(C)(C)c1ccc(OCCn2cc(C(=O)c3ccco3)c3ccccc32)cc1 as the compound, how does the Potency read?
Answer: inconclusive: 39.8 µM [cytotoxic, single point]

Question: For Cc1oc(-c2cccc(Cl)c2)nc1CN1CCC(C(=O)NCCCN2CCN(c3ccc(F)cc3)CC2)CC1, which Potency is on record?
Answer: active: 10 µM

Question: With COc1cccc(/C=C/c2onc(C)c2S(=O)(=O)N2CCC(C(=O)N3CCC(C)CC3)CC2)c1 as the compound, how does the Potency read?
Answer: inconclusive: 0.708 µM [rising, full curve, poor fit]

Question: For CCOc1ccc(S(=O)(=O)N(CC(=O)Nc2ccc3c(c2)OCO3)c2ccccc2)cc1, which Potency is on record?
Answer: inconclusive: 3.55 µM [rising, full curve, poor fit]

Question: Which Potency does the source give for Nc1c(C(=O)c2ccc(F)cc2)sc(Nc2ccccc2F)c1S(=O)(=O)c1ccc(Br)cc1 here?
Answer: inconclusive: 22.4 µM [cytotoxic, single point]

Question: For COc1ccccc1CNC(=O)c1ccc2c(c1)CCN2S(=O)(=O)c1ccccc1, which Potency is on record?
Answer: inconclusive: 39.8 µM [cytotoxic, single point]

Question: Which Potency does the source give for COc1ccc(Cc2nc3ccc(C(=O)NCc4ccc(OC)cc4OC)cc3o2)cc1 here?
Answer: inconclusive: 31.6 µM [cytotoxic, partial curve]
